These are yes or no findings as the source states them, for the method shown. In cells and extracts the contact can be indirect. Some results given as binding are weak or reduced against the parent protein; the word gives no strength. Tags and fused reporters may be left off the sequences shown. Each block holds one binder with its values, some of them ahead of it.
Legend:
Assay in all cases: co-IP; HEK293T cells co-transfected, harvested 48 h after transfection; NETN lysis buffer (20 mM Tris-HCl pH 7.5, 100 mM NaCl, 6 mM EDTA, 0.5% NP-40); 1 mg protein with 50 ul anti-HA, anti-GFP, anti-FLAG or anti-Myc mAb magnetic beads overnight at 4 C; five washes; western blotting; both directions of precipitation
[1] = molecular target: T1, Myc-tagged ADAM3 (ADAM3-Myc) (mouse) (UniProt F8VQ03)
T1 sequence: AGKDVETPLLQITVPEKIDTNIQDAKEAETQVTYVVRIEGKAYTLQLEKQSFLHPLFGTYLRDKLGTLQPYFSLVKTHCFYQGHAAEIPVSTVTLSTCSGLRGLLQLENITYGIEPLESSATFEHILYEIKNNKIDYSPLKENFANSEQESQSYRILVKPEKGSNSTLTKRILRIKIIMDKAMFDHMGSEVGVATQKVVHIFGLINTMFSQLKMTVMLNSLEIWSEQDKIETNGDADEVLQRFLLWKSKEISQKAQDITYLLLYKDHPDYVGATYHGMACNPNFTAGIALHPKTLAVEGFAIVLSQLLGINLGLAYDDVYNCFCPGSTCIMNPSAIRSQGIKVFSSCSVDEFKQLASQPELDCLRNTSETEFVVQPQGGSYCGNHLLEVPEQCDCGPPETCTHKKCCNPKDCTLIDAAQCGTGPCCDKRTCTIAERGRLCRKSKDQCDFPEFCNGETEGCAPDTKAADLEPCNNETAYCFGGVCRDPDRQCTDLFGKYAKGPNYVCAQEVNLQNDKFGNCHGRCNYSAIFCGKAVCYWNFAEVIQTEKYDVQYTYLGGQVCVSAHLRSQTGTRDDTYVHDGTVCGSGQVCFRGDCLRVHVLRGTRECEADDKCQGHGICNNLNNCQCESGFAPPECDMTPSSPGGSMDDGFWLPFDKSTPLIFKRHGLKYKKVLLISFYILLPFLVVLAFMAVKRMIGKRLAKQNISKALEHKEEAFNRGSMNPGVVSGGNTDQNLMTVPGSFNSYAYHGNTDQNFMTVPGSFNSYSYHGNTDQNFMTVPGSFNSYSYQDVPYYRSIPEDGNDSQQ

[2] = molecular target: T2, HA-tagged PRSS54 (PRSS54-HA) (mouse) (UniProt Q7M756)
T2 sequence: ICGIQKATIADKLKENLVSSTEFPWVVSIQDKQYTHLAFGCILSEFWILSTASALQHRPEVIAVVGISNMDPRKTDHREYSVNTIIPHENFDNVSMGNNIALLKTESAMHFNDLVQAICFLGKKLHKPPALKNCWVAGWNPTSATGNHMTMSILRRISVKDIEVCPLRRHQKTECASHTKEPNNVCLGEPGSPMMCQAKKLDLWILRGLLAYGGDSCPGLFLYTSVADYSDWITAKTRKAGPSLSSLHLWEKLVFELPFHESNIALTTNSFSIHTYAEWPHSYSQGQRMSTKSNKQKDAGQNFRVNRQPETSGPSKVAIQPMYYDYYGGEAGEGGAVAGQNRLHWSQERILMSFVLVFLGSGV

[3] = molecular target: T3, PDILT (from pCAG-Pdilt-FLAG) (mouse) (UniProt Q9DAN1)
T3 sequence: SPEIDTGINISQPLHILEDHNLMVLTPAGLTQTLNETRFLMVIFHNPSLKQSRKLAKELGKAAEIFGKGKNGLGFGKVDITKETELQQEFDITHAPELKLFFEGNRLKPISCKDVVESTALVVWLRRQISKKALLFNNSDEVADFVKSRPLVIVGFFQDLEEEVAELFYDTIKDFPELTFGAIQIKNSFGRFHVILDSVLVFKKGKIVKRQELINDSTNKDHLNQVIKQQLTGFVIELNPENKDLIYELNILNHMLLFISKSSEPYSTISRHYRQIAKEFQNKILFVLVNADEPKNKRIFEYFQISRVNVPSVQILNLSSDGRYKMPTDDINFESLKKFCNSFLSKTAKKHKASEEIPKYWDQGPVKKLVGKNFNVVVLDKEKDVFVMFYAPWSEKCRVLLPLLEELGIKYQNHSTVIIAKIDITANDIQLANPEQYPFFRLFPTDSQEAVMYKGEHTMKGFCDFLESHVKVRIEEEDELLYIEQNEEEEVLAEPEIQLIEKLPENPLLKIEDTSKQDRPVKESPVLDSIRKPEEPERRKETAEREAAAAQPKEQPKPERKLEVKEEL

[4] = molecular target: T4, FLAG-tagged ZPBP (ZPBP-FLAG) (mouse) (UniProt Q62522)
T4 sequence: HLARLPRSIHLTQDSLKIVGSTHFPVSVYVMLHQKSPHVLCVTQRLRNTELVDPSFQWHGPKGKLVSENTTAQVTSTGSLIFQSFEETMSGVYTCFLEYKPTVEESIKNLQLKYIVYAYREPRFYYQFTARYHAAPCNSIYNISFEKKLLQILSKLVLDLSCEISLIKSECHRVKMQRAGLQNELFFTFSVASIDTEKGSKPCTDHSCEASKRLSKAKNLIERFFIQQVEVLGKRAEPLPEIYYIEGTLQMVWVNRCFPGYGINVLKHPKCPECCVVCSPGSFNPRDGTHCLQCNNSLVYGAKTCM

[5] = molecular target: T5, CLGN (from pCAG-Clgn-FLAG) (mouse) (UniProt P52194)
T5 sequence: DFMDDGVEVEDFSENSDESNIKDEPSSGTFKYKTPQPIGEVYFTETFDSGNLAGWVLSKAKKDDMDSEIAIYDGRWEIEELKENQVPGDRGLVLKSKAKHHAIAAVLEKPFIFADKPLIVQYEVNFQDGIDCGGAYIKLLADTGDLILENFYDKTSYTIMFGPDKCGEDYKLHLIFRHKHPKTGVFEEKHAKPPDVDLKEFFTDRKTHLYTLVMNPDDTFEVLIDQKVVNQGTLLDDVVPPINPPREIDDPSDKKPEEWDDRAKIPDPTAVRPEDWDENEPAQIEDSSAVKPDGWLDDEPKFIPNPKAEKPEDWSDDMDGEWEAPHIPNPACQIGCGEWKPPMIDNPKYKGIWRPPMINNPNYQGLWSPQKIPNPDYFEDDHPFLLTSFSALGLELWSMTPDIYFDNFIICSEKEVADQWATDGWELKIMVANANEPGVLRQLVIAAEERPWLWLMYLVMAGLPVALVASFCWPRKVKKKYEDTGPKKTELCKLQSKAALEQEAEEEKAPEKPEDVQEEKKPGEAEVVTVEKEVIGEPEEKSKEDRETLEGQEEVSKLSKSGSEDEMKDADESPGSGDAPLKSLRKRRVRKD

[6] = molecular target: T6, EGFP-tagged PRSS55 (PRSS55-EGFP) (mouse) (UniProt Q14BX2)
T6 sequence: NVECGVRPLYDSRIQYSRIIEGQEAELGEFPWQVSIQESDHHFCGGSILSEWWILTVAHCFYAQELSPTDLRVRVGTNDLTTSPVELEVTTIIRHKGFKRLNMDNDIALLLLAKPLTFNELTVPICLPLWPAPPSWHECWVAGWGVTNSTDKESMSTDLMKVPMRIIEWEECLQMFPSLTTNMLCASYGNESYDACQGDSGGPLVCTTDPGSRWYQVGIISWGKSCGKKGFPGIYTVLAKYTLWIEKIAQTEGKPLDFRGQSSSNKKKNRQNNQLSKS

- binding [1]: binds
- binding [2]: binds
- binding [3]: no binding
- binding [4]: binds
- binding [5]: no binding
B1: EGFP-tagged SPEM2 (SPEM2-EGFP fusion protein) (protein, UniProt Q8C5U4 1-503)
chain: MENQLWQNTLRCCEQYQESPQDAENILFLLLGLIILVNISINVATAMWQGLQNAIDKMIFWMNQKTEVVQVTECPPKEPQPANVQDVHIHCILDPVQVKMAQPTQCSSSSSHYFCKRSNDRRSRRRYGYQQGNLQIHQSSQQQGCLSHQQRLRNRPLSRGYPPFRKQPQGHKMSQMRPMPFFDMEDRDSLPEGHSCPHAKQPRRGWGSLCKPVRLASNVGLWGRQGGILASLPLPSLYLSPELRRLPKRVEAKSELRLQGFGPHYSQSRIWGTVEAEQWASSPPPPRRLLPNPSWVTVGYSSFPSGGHIPYDARDQWRRGTEGCEPPPAFVPRNPREVQGYRDHNSQAHRQNFSSHTHSQPNHSPPQSMGHVGYSSRESHEVRRRAPDWIEVFPSRHPLTTSTSLTALGEASYQRAPPASSGLMIPHSSQRLAEVQISDPTPPPTTFVPLSRNPGGNATYQVYDSLELKRQVQENRGRASSLPPPSTSASRPSLHRSRTGKLN

- binding [6]: binds
B2: FLAG-tagged SPEM2 (SPEM2-FLAG) (protein, UniProt Q8C5U4 1-503)
chain: B1 chain

From publication PMC10904452
